The supplement of paper PMC10724272
MIC of invasive clinical C. tropicalis isolates, CLSI broth microdilution (fluconazole 0.12-256 mg/L, up to 1,024 for the azole-resistant cluster and its neighbour group; other ranges not stated); higher = less susceptible. Call: susceptible or wild type [S] / resistant or non-wild type [R] by CLSI breakpoints or cut-offs; intermediate and dose-dependent carry no call. '<=' and '>=' at the end values are inferred; the source marks only some of them. Isolates are numbered anew.

The test systems below were run with CC[C@@H]([C@H](C)O)n1ncn(-c2ccc(N3CCN(c4ccc(OC[C@@H]5CO[C@@](Cn6cncn6)(c6ccc(F)cc6F)C5)cc4)CC3)cc2)c1=O [posaconazole] (assay: CLSI broth microdilution.).
For “Candida tropicalis isolate 23 (ERG11 copies: 2, Erg11p: no key change)”, the MIC was 0.25 mg/L [S]. “Candida tropicalis isolate 72 (ERG11 copies: 2, Erg11p: no key change)” was tested, and the MIC was 0.5 mg/L [R]. “Candida tropicalis isolate 430 (ERG11 copies: 2, Erg11p: no key change)” gave an MIC of 0.03 mg/L [S]. “Candida tropicalis isolate 147 (ERG11 copies: 2, Erg11p: no key change)” showed an MIC of 0.25 mg/L [S]. In the case of “Candida tropicalis isolate 309 (ERG11 copies: 2, Erg11p: no key change)”, the MIC is reported as 0.03 mg/L [S]. Test System “Candida tropicalis isolate 262 (ERG11 copies: 2, Erg11p: no key change)” has an MIC of 0.25 mg/L [S]. Test System “Candida tropicalis isolate 31 (ERG11 copies: 2, Erg11p: no key change)” has an MIC of 0.25 mg/L [S]. Test System “Candida tropicalis isolate 397 (ERG11 copies: 7, Erg11p: Y132F, S154F (heterozygous))” has an MIC of 1 mg/L [R]. With “Candida tropicalis isolate 419 (ERG11 copies: 2, Erg11p: no key change)” the MIC was 0.25 mg/L [S]. Work on “Candida tropicalis isolate 314 (ERG11 copies: 2, Erg11p: no key change)” yielded an MIC of 0.06 mg/L [S]. For “Candida tropicalis isolate 361 (ERG11 copies: 2, Erg11p: no key change)”, the MIC was 0.06 mg/L [S]. “Candida tropicalis isolate 26 (ERG11 copies: 2, Erg11p: no key change)” gave an MIC of 0.03 mg/L [S]. “Candida tropicalis isolate 441 (ERG11 copies: 2, Erg11p: no key change)” gave an MIC of 0.25 mg/L [S]. Work on “Candida tropicalis isolate 8 (ERG11 copies: 2, Erg11p: no key change)” yielded an MIC of 0.5 mg/L [R]. Test System “Candida tropicalis isolate 237 (ERG11 copies: 7, Erg11p: Y132F, S154F (heterozygous))” has an MIC of 1 mg/L [R]. For “Candida tropicalis isolate 413 (ERG11 copies: 8, Erg11p: Y132F, S154F (heterozygous))”, the MIC was 1 mg/L [R]. In the case of “Candida tropicalis isolate 387 (ERG11 copies: 2, Erg11p: no key change)”, the MIC is reported as 0.12 mg/L [S]. “Candida tropicalis isolate 215 (ERG11 copies: 2, Erg11p: Y257H (homozygous))” gave an MIC of 0.5 mg/L [R]. “Candida tropicalis isolate 345 (ERG11 copies: 2, Erg11p: no key change)” gave an MIC of 0.25 mg/L [S]. “Candida tropicalis isolate 122 (ERG11 copies: 2, Erg11p: no key change)” gave an MIC of 0.5 mg/L [R]. In the case of “Candida tropicalis isolate 112 (ERG11 copies: 5, Erg11p: Y132F, S154F (heterozygous))”, the MIC is reported as 0.5 mg/L [R]. “Candida tropicalis isolate 367 (ERG11 copies: 2, Erg11p: no key change)” showed an MIC of 0.12 mg/L [S]. “Candida tropicalis isolate 235 (ERG11 copies: 2, Erg11p: no key change)” gave an MIC of 0.12 mg/L [S].

What follows are test systems tested with Nc1[nH]c(=O)ncc1F [flucytosine] (assay: CLSI broth microdilution.).
For “Candida tropicalis isolate 402 (ERG11 copies: 2, Erg11p: no key change)”, the MIC was no more than 0.06 mg/L [S]. “Candida tropicalis isolate 27 (ERG11 copies: 2, Erg11p: no key change)” gave an MIC of no more than 0.06 mg/L [S]. Work on “Candida tropicalis isolate 99 (ERG11 copies: 2, Erg11p: no key change)” yielded an MIC of 0.12 mg/L [S]. Work on “Candida tropicalis isolate 340 (ERG11 copies: 2, Erg11p: no key change)” yielded an MIC of no more than 0.06 mg/L [S]. Work on “Candida tropicalis isolate 410 (ERG11 copies: 8, Erg11p: Y132F, S154F (heterozygous))” yielded an MIC of no more than 0.06 mg/L [S]. In the case of “Candida tropicalis isolate 416 (ERG11 copies: 2, Erg11p: no key change)”, the MIC is reported as no more than 0.06 mg/L [S]. “Candida tropicalis isolate 318 (ERG11 copies: 2, Erg11p: no key change)” was tested, and the MIC was no more than 0.06 mg/L [S]. With “Candida tropicalis isolate 320 (ERG11 copies: 2, Erg11p: no key change)” the MIC was 0.12 mg/L [S]. “Candida tropicalis isolate 226 (ERG11 copies: 2, Erg11p: no key change)” showed an MIC of no more than 0.06 mg/L [S]. Test System “Candida tropicalis isolate 266 (ERG11 copies: 2, Erg11p: no key change)” has an MIC of no more than 0.06 mg/L [S]. “Candida tropicalis isolate 271 (ERG11 copies: 2, Erg11p: no key change)” gave an MIC of no more than 0.06 mg/L [S]. Work on “Candida tropicalis isolate 63 (ERG11 copies: 2, Erg11p: no key change)” yielded an MIC of no more than 0.06 mg/L [S]. Test System “Candida tropicalis isolate 386 (ERG11 copies: 2, Erg11p: no key change)” has an MIC of no more than 0.06 mg/L [S]. “Candida tropicalis isolate 23 (ERG11 copies: 2, Erg11p: no key change)” showed an MIC of no more than 0.06 mg/L [S]. Work on “Candida tropicalis isolate 72 (ERG11 copies: 2, Erg11p: no key change)” yielded an MIC of no more than 0.06 mg/L [S]. With “Candida tropicalis isolate 430 (ERG11 copies: 2, Erg11p: no key change)” the MIC was no more than 0.06 mg/L [S]. “Candida tropicalis isolate 147 (ERG11 copies: 2, Erg11p: no key change)” was tested, and the MIC was 0.12 mg/L [S]. “Candida tropicalis isolate 309 (ERG11 copies: 2, Erg11p: no key change)” gave an MIC of 0.12 mg/L [S].
